In PubChem BioAssay AID1347165 (National Center for Advancing Translational Sciences (NCATS), 2019):
Hit rate of the full screen: of about 220,000 compounds, about 5,700 (2.6%) were called active. Inconclusive means that the source gave no clear call. Such entries were picked first, then a sample of the others. The call rests on the fitted dose curve; in most records, active means well fitted inhibition curve with a large enough effect; inconclusive means small, poorly fitted or top-dose-only effect; inactive means no such curve, though single readings can be large or run the other way. Potencies beside an inconclusive call are fits to weak or partial responses and may not hold up.

The compounds below were run against Lysine-specific demethylase 5B (Homo sapiens) (UniProt Q9UGL1) (assay: Primary screen for KDM5B Histone Demethylases FDH-coupled qHTS). Conditions: FDH-coupled NADH fluorescence (FDH is formaldehyde dehydrogenase); activity change, negative = inhibition: at 57.7 µM (top of the series) unless noted.
Procedure, shortened: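 qHTS format, multiple compound concentrations. Buffer 50 mM HEPES pH 7.5/0.01% Tween-20; 200 nM KDM5BΔAP final; 10 min compound preincubation; substrate-mix levels 12.5 µM peptide, 25 µM α-KG, 0.25 mM NAD⁺; 30 min RT; ΔRFU.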
Further: nearly all actives have a fitted effect of over 70% in size.
Potency means the concentration at half of the fitted maximal effect; tags describe the fitted curve by direction and shape.
Wherever activity change, negative = inhibition is given: 0% is about no effect.

Sequence of UniProt Q9UGL1 (Q9UGL1 whole entry, looked up): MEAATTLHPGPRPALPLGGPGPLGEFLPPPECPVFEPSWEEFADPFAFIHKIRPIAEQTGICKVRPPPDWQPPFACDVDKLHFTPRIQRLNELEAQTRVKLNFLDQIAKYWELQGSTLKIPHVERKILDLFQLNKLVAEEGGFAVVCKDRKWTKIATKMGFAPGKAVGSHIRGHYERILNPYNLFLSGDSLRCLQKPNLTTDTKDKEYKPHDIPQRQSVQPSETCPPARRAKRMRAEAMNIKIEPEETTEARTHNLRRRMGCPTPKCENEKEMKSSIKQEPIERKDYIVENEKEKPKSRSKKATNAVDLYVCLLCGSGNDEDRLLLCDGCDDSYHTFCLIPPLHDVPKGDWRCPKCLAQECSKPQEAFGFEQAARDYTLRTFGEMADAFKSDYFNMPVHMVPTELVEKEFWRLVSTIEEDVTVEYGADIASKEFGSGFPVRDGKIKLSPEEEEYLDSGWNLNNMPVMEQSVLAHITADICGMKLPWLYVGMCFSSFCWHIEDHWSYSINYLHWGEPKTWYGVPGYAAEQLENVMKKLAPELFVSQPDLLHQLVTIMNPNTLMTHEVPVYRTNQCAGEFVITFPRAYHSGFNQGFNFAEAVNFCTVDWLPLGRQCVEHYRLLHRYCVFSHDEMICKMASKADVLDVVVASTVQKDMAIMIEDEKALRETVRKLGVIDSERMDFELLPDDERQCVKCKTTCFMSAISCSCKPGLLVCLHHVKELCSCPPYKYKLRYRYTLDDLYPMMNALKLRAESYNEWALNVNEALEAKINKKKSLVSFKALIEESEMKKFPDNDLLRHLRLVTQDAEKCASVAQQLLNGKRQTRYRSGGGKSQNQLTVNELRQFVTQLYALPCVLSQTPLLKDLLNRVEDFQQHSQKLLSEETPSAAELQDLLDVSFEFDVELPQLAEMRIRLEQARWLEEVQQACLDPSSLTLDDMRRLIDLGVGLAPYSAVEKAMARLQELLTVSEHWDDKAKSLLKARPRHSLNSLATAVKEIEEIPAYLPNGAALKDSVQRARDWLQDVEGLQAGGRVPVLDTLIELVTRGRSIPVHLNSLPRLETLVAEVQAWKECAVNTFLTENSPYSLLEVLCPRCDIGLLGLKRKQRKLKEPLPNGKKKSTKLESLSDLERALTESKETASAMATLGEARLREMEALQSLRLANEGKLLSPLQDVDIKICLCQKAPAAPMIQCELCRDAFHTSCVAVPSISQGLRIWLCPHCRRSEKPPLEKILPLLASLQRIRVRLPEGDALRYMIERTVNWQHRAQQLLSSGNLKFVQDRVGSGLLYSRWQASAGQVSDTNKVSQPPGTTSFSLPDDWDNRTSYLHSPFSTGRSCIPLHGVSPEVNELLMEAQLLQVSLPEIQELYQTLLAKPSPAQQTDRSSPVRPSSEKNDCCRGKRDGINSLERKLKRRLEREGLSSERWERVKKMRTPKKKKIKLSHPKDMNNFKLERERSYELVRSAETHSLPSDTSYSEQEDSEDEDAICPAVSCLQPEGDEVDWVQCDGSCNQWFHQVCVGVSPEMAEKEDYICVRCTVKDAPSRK

SMILES	Potency	activity change, negative = inhibition
Cc1nnc2n1CCC(NC(=O)c1ccc3cc[nH]c3c1)CC2 (centres undefined)	active: 28.2 µM	–
COc1cccc(CNC(=O)c2noc(-c3ccc(C)cc3)n2)c1	–	inactive: -7.61%
COc1cc(C(=O)Nc2nnc(S(=O)(=O)N(C)c3ccccc3)s2)cc(OC)c1OC	inconclusive: 31.6 µM [inhibitor, partial curve, poor fit]	–
Cc1ccc(-c2ccc3nnc(CNC(=O)c4ccc(C)cc4C)n3n2)cc1	active: 12.6 µM	–
COc1cc(C(=O)NCC(c2ccc(N(C)C)cc2)N2CCc3ccccc32)cc(OC)c1OC (centres undefined)	inconclusive: 17.8 µM [inhibitor, partial curve, poor fit]	–
Cc1ccc(-c2nc3n(n2)C(c2ccccc2C)C=C(c2ccc(Cl)cc2)N3)cc1 (centres undefined)	inconclusive: 35.5 µM [inhibitor, single point]	–
COC1CCCN(C(=O)c2cc(-c3cccc(N(C)C)c3)cc3ncn(C)c23)C1 (centres undefined)	inconclusive: 39.8 µM [inhibitor, partial curve]	–
COc1ncc(-c2cnc3[nH]cc(CC(=O)N4CCOCC4)c3c2)cn1	–	inactive: 3.46% [at 86.2 µM]
COc1ccc(-c2nc3cc(C)ccc3cc2CN2CC[C@@H](O)C2)cc1OC	inconclusive: 5.01 µM [inhibitor, partial curve]	–
Cc1ccc(OCC(=O)Nc2ccc(Cl)c(-c3nc4ncccc4o3)c2)cc1C	inconclusive: 35.5 µM [inhibitor, partial curve, poor fit]	–
CN(C)C[C@@H]1CN(Cc2ccccc2)C[C@H]1NC(=O)c1ccn[nH]1	–	inactive: -16.1%
CCOC(=O)c1c(C)oc2ncnc(Nc3ccc(F)cc3Cl)c12	inconclusive: 25.1 µM [inhibitor, partial curve, poor fit]	–
Cc1ccc(C)c(N2CCN(C(=O)c3cc4ccc5cccnc5c4[nH]3)CC2)c1	inconclusive: 17.8 µM [inhibitor, partial curve, poor fit]	–
Cc1ccccc1-n1cnnc1SCC(=O)Nc1ccc(S(=O)(=O)N2CCCCCC2)cc1	–	inactive: 15.2%
CC1(C)CC(NC(=O)Cn2nc3c(cc2=O)CCCCC3)CCO1 (centres undefined)	–	inactive: 48.4%
CCCCC1CCC(c2nc(C#N)c(N3CCN(CC)CC3)o2)CC1 (centres undefined)	–	inactive: -23.2%
O=C(c1cnccn1)N1CCC(N2CC3CC(C2)[C@H]2CCCC(=O)N2C3)CC1 (some centres undefined)	inconclusive: 15.8 µM [inhibitor, partial curve, poor fit]	–
COc1ccc(S(=O)(=O)NC2CC2)cc1NC(=O)c1n[nH]c(=O)c2ccccc12	–	inactive: 10.6%
Cc1ccc(/C=N/NC(=O)Cc2ccc(Cl)cc2)s1	inconclusive: 28.2 µM [inhibitor, partial curve, poor fit]	–
COc1ccc(NC(=O)c2c(-c3ccccc3)oc3ccc(OC)cc23)cc1	inconclusive: 8.91 µM [inhibitor, partial curve, poor fit]	–
Cc1ccc(/C=C/C(=O)c2cc3ccccc3o2)s1	inconclusive: 28.2 µM [inhibitor, single point]	–
Clc1cccc(Cl)c1C[n+]1cccc2ccccc21	inconclusive: 25.1 µM [inhibitor, single point]	–
Cc1nn(S(=O)(=O)c2ccc(C(C)C)cc2)c(C)c1S(=O)(=O)N1CCCCCC1	inconclusive: 39.8 µM [inhibitor, single point]	–

SMILES	Potency	activity change, negative = inhibition
Cn1ccc2ccc(C(=O)N3CCC(C(N)=O)CC3)cc21	inconclusive: 22.4 µM [inhibitor, partial curve, poor fit]	–
CCOc1ccccc1NC(=O)Cn1ccn2nc(-c3ccc(F)cc3)c(CO)c2c1=O	inconclusive: 28.2 µM [inhibitor, single point]	–
COc1ccccc1N1CCN(C(=O)c2cc(NC(=O)C(C)C)cc3nc(C)ccc23)CC1	–	inactive: -0.0312%
Cc1cccc(NC(=O)COc2ccc3c(C)cc(=O)oc3c2)c1C	inconclusive: 10 µM [inhibitor, partial curve, poor fit]	–
CCOC(=O)N1CCN(C(=O)c2ccc(N3C(=O)CCS3(=O)=O)cc2Cl)CC1	–	inactive: -12.6%
Cc1ccc(NC(=O)c2sc3ccccc3c2C)cc1	–	inactive: -10.5%
CCn1ccc(C(=O)N2c3ccccc3CC2c2nc(C(C)C)no2)n1 (centres undefined)	active: 25.1 µM	–
Cc1nn(CC(=O)NCc2cccnc2)c(=O)c2nc(-c3ccccc3)sc12	active: 28.2 µM	–
CN(Cc1ccc(Cl)cc1Cl)C(=O)CCN=C1NS(=O)(=O)c2ccccc21	–	inactive: 7.38%
O=C(Nc1cccc2ccccc12)O[C@@H]1CO[C@H]2[C@@H]1OC[C@@H]2NC(=S)Nc1cccc2ccccc12	inconclusive: 20 µM [inhibitor, partial curve]	–
Cc1ccccc1CCNC(=O)c1ccc2c(c1)c(C)c(C)n2C	inconclusive: 22.4 µM [inhibitor, partial curve, poor fit]	–
COc1ccccc1OCCSc1nnc(CNC(=O)c2ccco2)n1C	–	inactive: 6.43%
Cn1nnnc1SCCCNCc1ccc(-c2ccc(Br)cc2)o1	inconclusive: 25.1 µM [inhibitor, partial curve, poor fit]	–
O=C(CCc1ccccc1)Nc1cnc2ccccc2c1	inconclusive: 28.2 µM [inhibitor, partial curve, poor fit]	–
CCCCNC(=S)NC1CCCCC1	–	inactive: 23%
Cc1c(CC(=O)O)c(=O)oc2cc(OCc3ccccc3Cl)ccc12	inconclusive: 28.2 µM [inhibitor, partial curve, poor fit]	–
CC(=O)Nc1ccc(NCC(=O)c2ccccc2)cc1	inconclusive: 5.62 µM [inhibitor, partial curve, poor fit]	–
O=C(O)c1cccc(NCc2ccc(Cl)cc2Cl)c1	inconclusive: 25.1 µM [inhibitor, single point]	–
N#Cc1ccc(C(=O)N2CC(F)(F)C[C@H]2c2nc(C3CC3)no2)cc1	–	inactive: 21.5%
CC(C)CN1CCN(C(=O)CCC[C@H]2NC[C@@H]3C[C@H]2CN(Cc2ccccc2)C3)CC1	active: 6.31 µM	–
COc1cccc(NC(=O)c2sc3ncnc(N(C)c4ccccc4)c3c2C)c1	inconclusive: 39.8 µM [inhibitor, single point]	–
CNC(=O)c1ccc(-c2nc(CN3CCN(C(=O)Nc4ccccc4Cl)CC3)c(C)o2)cc1	inconclusive: 39.8 µM [inhibitor, single point]	–
CC(OC(=O)c1c[nH]c2ccccc12)C(=O)NCc1ccccc1 (centres undefined)	–	inactive: 13.2%

SMILES	Potency	activity change, negative = inhibition
Cc1ccc(NC(=O)c2nc3ccccc3nc2N2CCOCC2)c(Cl)c1	–	inactive: 8.18%
Cc1nc2nc(C(F)(F)F)[nH]n2c(=O)c1Cc1ccccc1Cl	–	inactive: 10.1%
COc1ccc(C(=O)Nc2ccccc2C(=O)OCc2cc(=O)n3c4c(sc3n2)CCCC4)cc1	inconclusive: 14.1 µM [inhibitor, partial curve, poor fit]	–
O=C(CCC(=O)N1CC2CCCN2c2ccccc21)NCc1ccccc1Cl (centres undefined)	inconclusive: 17.8 µM [inhibitor, partial curve, poor fit]	–
COc1ccc(-c2cc(=O)n3[nH]cnc3n2)cc1	inconclusive: 31.6 µM [inhibitor, partial curve, poor fit]	–
O=C(CCC(=O)c1ccc2ccccc2c1)NC1CCCCCC1	–	inactive: 15.9%
C[C@@H]1OC(C2CCCCC2)N(C)[C@H]2C[C@H]3c4[nH]c5c(-c6ccc7c(c6)OCO7)cccc5c4CCN3C[C@@H]12 (some centres undefined)	inconclusive: 22.4 µM [inhibitor, partial curve, poor fit]	–
COc1cccc(-c2nc3ccccc3c(C)c2C#N)c1	–	inactive: -4.73%
O=C(COC(=O)c1cc2ccccc2oc1=O)NC1CCCCCC1	–	inactive: -0.481%
CCC(C(=O)N1CCN(Cc2ccc(C)c(C)c2)C(=O)C1)n1cccn1 (centres undefined)	–	inactive: -27.7%
Fc1cc(Nc2ncc(-c3ccccc3)c3c2OCC3)cc(N2CCOCC2)c1	active: 12.6 µM	–
CCc1noc(-c2cccn3c(CNC(=O)Cc4c[nH]c5ccccc45)nnc23)n1	inconclusive: 17.8 µM [inhibitor, partial curve]	–
COCC(=O)N1C[C@@H]2CCCN3CCC[C@@H]([C@H]23)[C@H]1CCCC(=O)N1CCOCC1	–	inactive: -17.5%
CCN(Cc1nccn1C)C(=O)c1ccc(N2CCN3CCCC3C2)nc1 (centres undefined)	inconclusive: 7.94 µM [inhibitor, full curve]	–
N#Cc1ccc(CN2CCC[C@H]2C(=O)N2CCCCCCNC(=O)CC2)cc1	inconclusive: 22.4 µM [inhibitor, partial curve, poor fit]	–
Cc1ccc(S(=O)(=O)N2CCOCC2)cc1C(=O)Nc1ccccc1-c1nc2ccccc2[nH]1	inconclusive: 25.1 µM [inhibitor, partial curve, poor fit]	–
Cc1ccc(-c2nnc(Nc3ccc(Br)cc3)c3ccccc23)cc1S(=O)(=O)N1CCOCC1	inconclusive: 3.55 µM [inhibitor, full curve, poor fit]	–
O=C(NCCc1noc(-c2ccncc2)n1)C1CCCO1 (centres undefined)	–	inactive: 10.7%
O=C(CCC1CCN(C(=O)c2ccccc2F)CC1)Nc1ccc(N2CCOCC2)cc1	inconclusive: 39.8 µM [inhibitor, partial curve, poor fit]	–
COc1ccc(-n2c(=O)c3sc4ccccc4c3n(CC(=O)Nc3cccc(C)c3)c2=O)cc1	inconclusive: 0.794 µM [inhibitor, full curve, poor fit]	–
NC(=O)c1ccsc1NC(=O)COC(=O)c1ccc(Br)cc1	–	inactive: -22%
Cc1nccc(N2CCN(C(=O)N3CCOCC3)CC(C(=O)O)C2)n1 (centres undefined)	–	inactive: 21.5%
NCC1CCN(CCc2ccc(F)cc2)CC1	inconclusive: 10 µM [inhibitor, partial curve, poor fit]	–
